This passage reports switch fluorescence ratio results from the supplement of paper PMC10126150.

The subject of the series is ATP. Briefly: switch fluorescence ratio, 500 uM ATP over buffer (Cy3 cluster intensity, sum of 5 cycles each) (fold (ratio)); higher = stronger signal-on switching upon ATP binding; sequences stand for … in TCGTCGGCAGCGTCAGATGTGTATAAGAGACAGTTTTTTTTTTTTTTTTTTTTTTTTT…TC. As to conditions: aptamer strand: ATP DNA aptamer (quencher-CACCTGGGGGAGTATTGCGGAGGAAGG + anchor), 100 nM annealed; ATP concentration: 500 uM; one replicate. In a few lines: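 Clusters carrying Cy3-labelled switching strands on a modified Illumina MiSeq flow-cell were annealed to 100 nM quencher-labelled ATP aptamer and imaged in selection buffer. They were imaged again after 15 min with 500 uM ATP at 22 °C, over five buffer/ATP cycles with NaOH stripping and re-annealing in between. For each cluster, the fluorescence ratio is the summed Cy3 intensity of the target cycles divided by that of the buffer cycles, averaged per switch-domain sequence. Clusters outside 100-1000 RFU were left out.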

Sequences with one replicate were seen in a single cluster, so their values are uncertain.
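Also: ATP exposure 15 min at 22 °C before imaging.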

Regarding TGACTTGTAG, the switch fluorescence ratio was determined as 1.01. The figure for AGCGGGCATC is 1.02. The figure for TTCCAAAGTG is 1.07; for CACGCGGTGC it is 3.05. In the case of AGACTTTTCC it was 1.05; in that of CCCAATTAAA, 1.02; in that of CGCGCAGGTC, 1.2.

On to CTCCTTCCAC, for which the switch fluorescence ratio amounted to 2.27. On to AAAGCATGAA, for which the switch fluorescence ratio is 1.05. On to TTGTATAGCC, for which the switch fluorescence ratio came out at 1.

On to GCAGTGTCAA, for which the switch fluorescence ratio amounted to 0.995. The figure for ACCTCTAGTA is 1.03; for CAGCCCAAAT it is 1.01. The figure for TTACCAAAAT is 1.05; for AATCAGGTGC it is 1.95. In the case of CATTCTTGGC it was 0.981; in that of ATCTAAGAAT, 0.955. ATAAGTAGGT: the switch fluorescence ratio came out at 1.06.

With TAGCTACTAG, the switch fluorescence ratio was determined as 1.03.

For CTGGAAGCGA, the switch fluorescence ratio worked out at 2.52. In the case of CGAAACAATT it was 1.01. Turning to TCTTCATACT, the switch fluorescence ratio is 1.07. In the case of GTCAGCGTGC it was 0.995; in that of AGGTGTGTTA, 0.976. On to CCTGGTGCAC, for which the switch fluorescence ratio worked out at 1.1. As to GTCGCTTGTT, the switch fluorescence ratio was found to be 1. The figure for ATATAGAGGA is 1. Consider AACAATTACA, for which the switch fluorescence ratio is 1.04. The figure for AGCTATGCGG is 0.93; for AGACGGGCAT it is 1.03; for TTGTAAGTTC it is 0.951. In the case of CCCCAAAAAT it was 1.67; in that of CCGGGGGCCC, 2.57.

Take ACAGTCTGTC: the switch fluorescence ratio is 0.899. The figure for TCGTGCGTAC is 1.67; for TCCCGATTCG it is 1.04. Consider TGCAGCTTTT, for which the switch fluorescence ratio was 1.18.

As for ATTACTCGAC, the switch fluorescence ratio amounted to 1.32. For CAGCATGCCG, the switch fluorescence ratio turned out to be 0.963. In the case of GTTACCTGGC it was 1.1; in that of TGCGTAGCTT, 0.951. For the sequence TGCAAAACGT, the switch fluorescence ratio came out at 1.08.

In the case of AGAATGGAAT, the switch fluorescence ratio came out at 0.989. In the case of AACGACGTCG it was 1.01.

On to GTTAAACCTT, for which the switch fluorescence ratio is 2.36. The figure for CTCTTATTTT is 1.01; for GAAAATCGTT it is 0.989; for CTACGAGGGG it is 0.986. In the case of AAATGTAACG it was 1.08; in that of CAGTTCCTTG, 0.999; in that of CAATGAACAT, 1.04. The figure for ACATGGGGAT is 1.01; for TAAATTCTTA it is 0.967; for TGTTCAAATT it is 0.98. Consider GATAGTACAT, for which the switch fluorescence ratio was 1.06. The figure for GCCTAATATC is 1.05. With TAAAGGTTT, the switch fluorescence ratio was 0.966.

For the sequence GTTGGCGAAC, the switch fluorescence ratio is 1.06. For the sequence TTGCTGTTTT, the switch fluorescence ratio was 0.979. CGATCCGGAG: the switch fluorescence ratio amounted to 1.1.

AAAATTCCTG: the switch fluorescence ratio was 1.05. In the case of CGTTGACTCT it was 0.999. In the case of GGCAGATGGT it was 0.947; in that of TTGGAGTAAT, 1.34.

As to GTGTAGGGAC, the switch fluorescence ratio was determined as 1.01.

Take TCTTTAAGTG: the switch fluorescence ratio stood at 0.984.
